According to PMC4336329 (PLoS ONE, 2015):
Hit rate of the full screen: of about 310,000 compounds, about 14,000 (4.5%) showed an effect of 50% or more. Effects have a minus sign here. The list shows a part of the results.

These compounds were tested against human ether-à-go-go-related gene (hERG) potassium channel (human, UniProt Q12809) (assay: primary screen, population patch clamp on CHO cells stably expressing hERG).
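Note: peak tail current of the secondary pulse compared with the same well before compound.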

Sequence of human ether-à-go-go-related gene (hERG) potassium channel (Q12809 whole entry, looked up): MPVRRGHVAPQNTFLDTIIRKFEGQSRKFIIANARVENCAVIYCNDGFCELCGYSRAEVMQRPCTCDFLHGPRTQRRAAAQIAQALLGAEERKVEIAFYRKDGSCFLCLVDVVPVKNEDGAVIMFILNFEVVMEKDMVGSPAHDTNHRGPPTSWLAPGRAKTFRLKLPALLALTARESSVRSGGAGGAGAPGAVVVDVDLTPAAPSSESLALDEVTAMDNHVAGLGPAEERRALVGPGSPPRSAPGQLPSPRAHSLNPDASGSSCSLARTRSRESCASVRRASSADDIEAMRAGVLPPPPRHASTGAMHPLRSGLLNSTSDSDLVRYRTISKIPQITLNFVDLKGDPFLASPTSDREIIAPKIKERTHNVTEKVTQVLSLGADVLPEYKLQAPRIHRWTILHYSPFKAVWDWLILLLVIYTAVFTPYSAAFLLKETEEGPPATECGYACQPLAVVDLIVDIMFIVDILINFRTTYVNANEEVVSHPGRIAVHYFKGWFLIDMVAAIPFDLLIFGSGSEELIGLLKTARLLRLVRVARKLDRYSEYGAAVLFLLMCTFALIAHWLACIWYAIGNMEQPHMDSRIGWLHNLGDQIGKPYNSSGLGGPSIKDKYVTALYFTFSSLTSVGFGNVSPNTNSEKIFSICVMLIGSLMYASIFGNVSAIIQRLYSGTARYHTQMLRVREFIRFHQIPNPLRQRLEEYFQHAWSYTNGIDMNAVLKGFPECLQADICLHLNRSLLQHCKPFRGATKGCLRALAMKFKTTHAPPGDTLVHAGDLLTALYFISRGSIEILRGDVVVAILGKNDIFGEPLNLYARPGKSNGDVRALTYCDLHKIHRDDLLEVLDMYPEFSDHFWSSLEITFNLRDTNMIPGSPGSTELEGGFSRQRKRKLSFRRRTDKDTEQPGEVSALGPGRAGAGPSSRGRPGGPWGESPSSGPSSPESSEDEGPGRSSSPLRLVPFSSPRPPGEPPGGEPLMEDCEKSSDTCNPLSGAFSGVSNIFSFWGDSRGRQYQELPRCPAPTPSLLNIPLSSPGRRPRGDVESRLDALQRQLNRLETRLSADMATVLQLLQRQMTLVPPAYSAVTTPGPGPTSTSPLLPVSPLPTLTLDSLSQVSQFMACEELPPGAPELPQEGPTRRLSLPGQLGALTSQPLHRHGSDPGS

Row | SMILES | hERG current change (%, negative = inhibition) at 10uM [%]
1 | Br.Cc1ccccc1Cn1c(=N)n(CC(=O)c2ccco2)c2ccccc21 | -65
2 | COc1ccc(C(C(=O)NC2CCCCC2)N(C(=O)CCl)c2ccc(C)cc2)cc1 (stereo not drawn) | 2.21
3 | Oc1c(Br)cccc1/C=N/Nc1c(F)c(F)c(F)c(F)c1F | -3.97
4 | CCOc1cc(C)c(S(=O)(=O)N2CCCC2)cc1C | -14.6
5 | COc1ccc(NC(=O)c2nc3nc(C)cc(C(F)F)n3n2)cc1OC | 4.43
6 | CC1CCc2c(c3ccccc3[nH]c2=O)O1 (stereo not drawn) | 6.76
7 | CCCCC(=O)Nc1cc(-c2nc3ncccc3o2)ccc1C | -1.76
8 | COc1cccc(-c2nnc3sc(-c4ccco4)nn23)c1 | 16.4
9 | O=C(O)c1cccc(NC(=O)c2ccc(N3C(=O)c4ccc(C(=O)Nc5cccc(C(=O)O)c5)cc4C3=O)cc2)c1 | -2.1
10 | Cc1c(NC(=O)CN2CCN(c3ccc([N+](=O)[O-])cc3)CC2)c(=O)n(-c2ccccc2)n1C | -50.1
11 | Cn1c(=O)c2c(nc(SC3C(=O)CC(C)(C)CC3=O)n2C)n(C)c1=O | 6.36
12 | COc1cc(NS(=O)(=O)c2ccc(NC(=O)c3ccc([N+](=O)[O-])cc3)cc2)ncn1 | -4.86
13 | Cc1occc1-c1nnc(SCC(=O)N2CCCCC2)o1 | -8.31
14 | COc1ccc(NC(=O)c2cccc(N3C(=O)C4C5C=CC(C5)C4C3=O)c2)c(OC)c1 (stereo not drawn) | 0.993
15 | Cc1ccc(NC(=O)C(C)N2C(=O)C3C4CC(C(Br)C4Br)C3C2=O)cc1 (stereo not drawn) | 16.4
16 | O=C(Nc1cccc(-c2cn3c(n2)SCC3)c1)c1ccc(Br)o1 | -2.79
17 | O=C1Nc2ccc(Br)cc2C1(O)Cc1ccncc1 (stereo not drawn) | -2.45
18 | O=C(COc1ccccc1)Nn1c(-c2ccccc2)nc2ccccc2c1=O | -9.19
19 | O=C1CC(C(=O)Nc2ccc(Cl)cc2)n2ncnc2N1 (stereo not drawn) | 5.96
20 | Cn1nnnc1SCCNC/C=C/c1ccccc1 | -15.3
21 | COc1cccc(-c2ccc(=O)n(CC(=O)Nc3cc4c(cc3NC(C)=O)OCCO4)n2)c1 | 4.63
22 | CC1(C)[C@H]2CC[C@]1(C)[C@@H](OC(=O)C[N+]1(C)CCOCC1)C2.[I-] | 14
23 | CC1(C)CC(=O)C2=C(C1)OC(N)=C(C#N)C2c1cn(-c2ccccc2)nc1-c1ccc(F)cc1 (stereo not drawn) | -25.5
24 | CCn1c(SCC(=O)N2CCN(c3cccc(Cl)c3)CC2)nc2ccccc2c1=O | -39.1
25 | CN(CC(=O)O/N=C(\N)c1ccccn1)S(=O)(=O)c1cc(Cl)ccc1Cl | -14.2
26 | CC(C)(C)c1ccc(/C=C/C(=O)Nc2ncccn2)cc1 | -25.9
27 | COc1ccc(C(=O)OCCc2cc3ccccc3c(=O)o2)cc1 | -9.55

Row | SMILES | hERG current change (%, negative = inhibition) at 10uM [%]
28 | O=C(CNS(=O)(=O)c1ccc(Br)s1)Nc1ccc2c(c1)OCCO2 | -9.7
29 | COc1ccc(OC)c(C2CC(=O)N3CN(c4ccccc4F)CSC3=C2C#N)c1 (stereo not drawn) | 15.2
30 | COc1ccc(CCC(=O)Nc2ccc(Cl)c(S(=O)(=O)N3CCCC3)c2)cc1 | -22
31 | Cc1cc(OCC(=O)OCC(=O)NCC2CCCO2)ccc1Cl (stereo not drawn) | 3.39
32 | CCN(CC)S(=O)(=O)c1ccc(NC(=O)C2CCCO2)cc1 (stereo not drawn) | 6.96
33 | COc1cccc(OC)c1-c1nn2c(-c3ccccc3Cl)nnc2s1 | -10.6
34 | COc1ccc(Cl)cc1NC(=O)C(C)N(C)Cc1ccc(C(F)(F)F)cc1 (stereo not drawn) | 11.2
35 | Cc1cc(NC(=O)CCCN2C(=O)c3cccc4cccc(c34)C2=O)no1 | 4.73
36 | COc1ccc(CC(=O)N2CCN=C2SC)cc1OC | 2.82
37 | COCCNC(=O)c1ccc(N2CC3CC(C2)c2cccc(=O)n2C3)c(NC(=O)c2ccc(Br)o2)c1 (stereo not drawn) | 10.9
38 | COc1ccccc1Nc1nnc(SCc2cc(=O)n3cc(C)ccc3n2)s1 | -12.8
39 | Cc1occc1-c1nnc(SCc2nc3ccccc3c(=O)n2CC#N)n1C | -21.5
40 | Cc1cc(C)n(CCSCC(=O)O)n1 | 12.5
41 | CCOC(=O)Cc1csc(NC(=O)CSc2ncnc3c2cnn3-c2ccc(OC)cc2)n1 | 5.81
42 | Cc1cccc(N2C(=O)N3[C@H](c4ccc(F)cc4)[C@@H]4C(=O)N(C5CCCCC5)C(=O)[C@@H]4[C@]3(Cc3ccccc3)C2=O)c1 | 6.3
43 | O=C(c1nc2ccc(Cl)cn2c1CN1CCCC1)N1CCc2ccccc2C1 | -10.6
44 | CN(C#N)c1nc(Cl)nc(Nc2cccc(Cl)c2)n1 | 7.58
45 | CCc1cccc(CC)c1C(OC(C)=O)c1cccnc1 (stereo not drawn) | -0.238
46 | O=c1oc(-c2ccco2)nc2ccccc12 | 6.96
47 | COc1cc(S(=O)(=O)Nc2cccc(C(=O)O)c2)c(OC)cc1Cl | 13.3
48 | COc1ccc(NC(=O)CN2CCN(C3c4ccccc4-c4ccccc43)CC2)c(OC)c1 | -10.5
49 | O=C(CN(CC1CCCO1)C(=O)CNS(=O)(=O)c1ccccc1)NCc1ccco1 (stereo not drawn) | 13.2
50 | CC(C)[C@H](NC(=O)OC(C)(C)C)C(=O)N/N=C/c1ccc2nccnc2c1 | 5.34
51 | Cc1ccc(C2NC(=O)c3c(sc(C)c3C)N2)c(O)c1 (stereo not drawn) | -3.45
52 | CCOc1ccc(/C=C2\SC(=S)N(CCCC(=O)NCCCN3CCOCC3)C2=O)cc1 | -4.5
53 | O=C(COC(=O)c1oc2ccccc2c1COc1ccccc1)NCCN1C(=O)CSC1=O | -31.6
54 | O=C1CSC(c2cccc([N+](=O)[O-])c2)N1c1ccccc1F (stereo not drawn) | -19.4
